Our source for the mortality values is patent US9828389B2, “Tetrazolinone compounds and their use as pesticides” (SUMITOMO CHEMICAL COMPANY, LIMITED, priority 2012, dated 2017).

One experiment relates to common house mosquito (Culex pipiens pallens). Briefly: whole plant or invertebrate. The note with it: 192 h, read-out: mortality of insects. As for the experimental part: The above-mentioned drug solutions 0.7 mL were added to an ion-exchange water 100 mL so that the active ingredient concentration was set to 3.5 ppm. Twenty (20) last instar larvae of common house mosquito (Culex pipiens pallens) were released into the dilutions and after 8 day, the number of the dead insects was counted.
The mortality of insects was calculated by the following equation. Mortality of insects (%)=(Number of dead insects/Number of tested insects)×100
For orientation: mortality means the percentage killed. Turning to `Cc1cc(C)n(-c2ccc(OCc3c(Cl)cccc3-n3nnn(C)c3=O)c(Cl)c2)n1` [Present compound 9, 1-{3-chloro-2-[2-chloro-4-(3,5-dimethyl-pyrazol-1-yl)-phenoxymethyl]-phenyl}-4-methyl-1,4-dihydrotetrazole-5-one], the mortality at 3.5 ppm was determined as 100%. For `CCc1cccc(-n2nnn(C)c2=O)c1COc1cc(C)c(-n2ccc(C)n2)cc1C` [Present compound 146, 1-{3-ethyl-2-[2,5-dimethyl-4-(3-methyl-pyrazol-1-yl)-phenoxymethyl]-phenyl}-4-methyl-1,4-dihydrotetrazole-5-one], the mortality at 3.5 ppm came out at 100%. Regarding `Cc1cc(-c2nn(C)c(Cl)c2C)ccc1OCc1c(-n2nnn(C)c2=O)cccc1C(F)(F)F` [Present compound 209, 1-{2-[2-methyl-4-(5-chloro-1,4-dimethyl-1H-pyrazol-3-yl)-phenoxymethyl]-3-trifluoromethyl-phenyl}-4-methyl-, 4-dihydrotetrazole-5-one], the mortality at 3.5 ppm was 100%.

For a further experiment, the system named is cabbage moth (Plutella xylostella). Briefly: whole plant or invertebrate. The note with it: 120 h, read-out: mortality of insects. As for the experimental part:
Cabbage (green ball) was planted in a polyethylene cup and was grown until the third true leaf or the fourth true leaf was developed. To the cabbage was spread the above-mentioned testing dilutions in a ratio of 20 mL/cup. After the drug dilutions were dried, to a polyethylene cup (diameter 5.5 cm) covered with a filter paper on the bottom, the cabbage cut out from the root was installed and five heads of cabbage moth (Plutella xylostella) at the three instar larval stages were released into the cup and the cup was covered with the lid. The cup was held at 25° C. and after 5 days, the number of the surviving insects was counted and the mortality of insects was calculated by the following equation. Mortality of insects (%)=(Number of dead insects/Number of tested insects)×100
Consider `Cc1cc(C)n(-c2ccc(OCc3c(Cl)cccc3-n3nnn(C)c3=O)c(Cl)c2)n1` [Present compound 9, 1-{3-chloro-2-[2-chloro-4-(3,5-dimethyl-pyrazol-1-yl)-phenoxymethyl]-phenyl}-4-methyl-1,4-dihydrotetrazole-5-one], for which the mortality at 500 ppm was determined as 80%.

Regarding `Cc1ccn(-c2ccc(OCc3c(Cl)cccc3-n3nnn(C)c3=O)c(C)c2)n1` [Present compound 13, 1-{3-chloro-2-[2-methyl-4-(3-methyl-pyrazol-1-yl)-phenoxymethyl]-phenyl}-4-methyl-1,4-dihydrotetrazole-5-one], the mortality at 500 ppm is 80%. The same measure, in the same setting: in the case of `Cc1cnn(-c2ccc(OCc3c(Cl)cccc3-n3nnn(C)c3=O)c(Cl)c2)c1` [Present compound 16, 1-{3-chloro-2-[2-chloro-4-(4-methyl-pyrazol-1-yl)-phenoxymethyl]-phenyl}-4-methyl-1,4-dihydrotetrazole-5-one] it was 80%. On the same count and under the same terms, in the case of `Cc1ccn(-c2cc(C)c(OCc3c(C)cccc3-n3nnn(C)c3=O)c(C)c2)n1` [Present compound 31, 1-{3-methyl-2-[2,6-dimethyl-4-(3-methyl-pyrazol-1-yl)-phenoxymethyl]-phenyl}-4-methyl-1,4-dihydrotetrazole-5-one] it was 80%. With `CCn1ccc(-c2ccc(OCc3c(C)cccc3-n3nnn(C)c3=O)c(C)c2)n1` [Present compound 44, 1-{3-methyl-2-[2-methyl-4-(1-ethyl-1H-3-pyrazol-3-yl)-phenoxymethyl]-phenyl}-4-methyl-1,4-dihydrotetrazole-5-one], the mortality at 500 ppm was 80%. As for `CCc1cccc(-n2nnn(C)c2=O)c1COc1ccc(-n2nc(C)cc2C)cc1C` [Present compound 50, 1-{3-ethyl-2-[2-methyl-4-(3,5-dimethyl-pyrazol-1-yl)-phenoxymethyl]-phenyl}-4-methyl-1,4-dihydrotetrazole-5-one], the mortality at 500 ppm is 80%. On to `COc1cccc(-n2nnn(C)c2=O)c1COc1ccc(-c2cc(C)n(C)n2)cc1C` [Present compound 90, 1-{3-methoxy-2-[2-methyl-4-(1,5-dimethyl-1H-pyrazol-3-yl)-phenoxymethyl]-phenyl}-4-methyl-1,4-dihydrotetrazole-5-one], for which the mortality at 500 ppm worked out at 80%. On the same count and under the same terms, in the case of `C#CCn1cc(C)c(-c2ccc(OCc3c(OC)cccc3-n3nnn(C)c3=O)c(C)c2)n1` [Present compound 143, 1-(2-{4-[4-methyl-1-(2-propynyl)-1H-pyrazol-3-yl)-2-methyl-phenoxymethyl}-3-methoxy-phenyl)-4-methyl-1,4-dihydrotetrazole-5-one] it was 80%; in that of `CCOc1cccc(-n2nnn(C)c2=O)c1COc1ccc(-c2nn(C)c(Cl)c2C)cc1C` [Present compound 210, 1-{3-ethoxy-2-[2-methyl-4-(5-chloro-1,4-dimethyl-1H-pyrazol-3-yl)-phenoxymethyl]-phenyl}-4-methyl-1,4-dihydrotetrazole-5-one], 80%.
